Measurements: PMC12095047, “Transport of phenoxyacetic acid herbicides by PIN-FORMED auxin transporters” (Nature Plants, 2025)
“And” between values parts separate entries of the source, which are not always exact repeats. Equal values may be shown once. Read-outs that look alike come from different tables or passages of the source. Further values from the same series stand in other lists.

Key:
Format in all cases: biochemical
Settings in all cases: individual sensors
PIN8 S55A/S146A = biological target: T1, PIN8 S55A/S146A (Arabidopsis thaliana, UniProt Q9LFP6, S146A/S55A)
T1 construct: made in house
T1 sequence (Q9LFP6 whole entry S55A/S146A): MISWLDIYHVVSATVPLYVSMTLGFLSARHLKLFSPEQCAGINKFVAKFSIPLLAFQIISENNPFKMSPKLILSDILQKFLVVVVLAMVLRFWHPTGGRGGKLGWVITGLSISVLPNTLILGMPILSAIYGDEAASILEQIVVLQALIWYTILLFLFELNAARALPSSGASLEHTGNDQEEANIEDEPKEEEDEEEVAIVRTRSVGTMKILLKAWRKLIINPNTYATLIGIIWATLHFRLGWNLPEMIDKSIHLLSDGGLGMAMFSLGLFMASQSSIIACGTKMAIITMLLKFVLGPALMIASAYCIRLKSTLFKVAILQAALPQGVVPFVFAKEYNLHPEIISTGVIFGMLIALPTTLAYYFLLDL
Protocol: (§1) SSM, using a SURFE2R N1 from Nanion Technologies, was conducted as described. In brief, soy polar lipid mix (38% phosphatidyl choline, 30% phosphatidyl ethanolamine, 18% phosphatidyl inositol, 7% phosphatidic acid and 7% other soy lipids) and 1-palmitoyl-2-oleoyl-sn-glycero-3-phosphocholin were purchased from Avanti. Liposomes were prepared in Ringer solution without Ca^2+ (115 mM NaCl, 2.5 mM KCl, 1 mM NaHCO3, 10 mM HEPES pH7.4, 1 mM MgCl2) and homogenized using a Lipsofast (Avestin) with a […]. Triton X-100 was added to the liposomes to a final concentration of 1% (v/v). Protein was added to liposomes to a calculated lipid-to-protein ratio (LPR) of 10 unless stated otherwise. The detergent was removed using 400 mg ml^−1 Bio Beads (BioRad) overnight at 4 °C in a rotary shaker. Proteoliposomes were frozen in liquid nitrogen and kept at −80 °C until use. Proteoliposomes were diluted 1:5 in Ringer solution without Ca^2+, sonicated five times and then applied to the sensors by centrifugation (30 min, 3,000 g, 4 °C). Non-activating buffer was Ringer solution without Ca^2+ as described unless specified otherwise, and activating buffer contained the substrate of interest. In most instances we used a single-solution exchange experiment. In this case proteoliposomes, immobilized on the supported membrane, are kept in non-activating buffer as specified. At the beginning of the experiment the non-activating buffer is replaced with fresh identical non-activating buffer, and after 1 s, activating buffer (same buffer containing substrate) is added. After another second, the buffer is replaced with non-activating buffer again. Current response is recorded throughout the entire 3 s. For competition or inhibition, the respective compound was present in non-activating and activating solutions. Each experiment was performed on at least two individual sensors. On each sensor each measurement consists of three technical replicates where the mean is calculated. KD values were determined as described previously. Briefly, the binding current induced by 100 µM NPA was recorded in the presence of different concentrations of the substrate under investigation ranging between 0 µM and 1,000 µM present in the activating solution and the non-activating solution (Extended Data Fig. 5b). […] The maximum peak current was then plotted as a function of the concentration of the substrate under investigation and plotted against the degree of inhibition and fitted with a one-site binding model using GraphPad Prism V10.4.1 The half maximal concentration corresponds to the KD of the substrate under investigation.
(§2) The protocol for expression and purification of AtPIN8 protein (Uniprot: Q9LFP6) in lauryl maltose neopentyl glycol was described previously. All point mutants were generated using Q5 Site-Directed mutagenesis kit (New England Biolabs). The C-flat Holey Carbon grids (CF-1.2/1.3, Cu-300 mesh) were glow-discharged for 45 s at 15 mA in a GloQube Plus (Quorum). […] After 1 h of incubation on ice, the sample was centrifuged at 16,000 g for 15 min before blotting to remove precipitation. A drop of 4 µl of each sample was applied to the glow-discharged grids, blotted with a Vitrobot Mark IV (ThermoFisher Scientific) using the following settings (temperature 4 °C, 100% humidity, blot time of 4 s, blot force −1) and vitrified in liquid ethane.

PIN8 N223A = biological target: T2, PIN8 N223A (Arabidopsis thaliana, UniProt Q9LFP6, N223A)
T2 construct: made in house
T2 sequence (Q9LFP6 whole entry N223A): as the sequence (Q9LFP6 whole entry S55A/S146A) above, with A55S, A146S, N223A counted along it
Protocol: as §1, §2

PIN8 Y150F = biological target: T3, PIN8 Y150F (Arabidopsis thaliana, UniProt Q9LFP6, Y150F)
T3 construct: made in house
T3 sequence (Q9LFP6 whole entry Y150F): as the sequence (Q9LFP6 whole entry S55A/S146A) above, with A55S, A146S, Y150F counted along it
Protocol: as §1, §2

PIN8 S266A = biological target: T4, PIN8 S266A (Arabidopsis thaliana, UniProt Q9LFP6, S266A)
T4 construct: made in house
T4 sequence (Q9LFP6 whole entry S266A): as the sequence (Q9LFP6 whole entry S55A/S146A) above, with A55S, A146S, S266A counted along it
Protocol: as §1, §2

PIN8 I51Y = biological target: T5, PIN8 I51Y (Arabidopsis thaliana, UniProt Q9LFP6, I51Y)
T5 construct: made in house
T5 sequence (Q9LFP6 whole entry I51Y): as the sequence (Q9LFP6 whole entry S55A/S146A) above, with I51Y, A55S, A146S counted along it
Protocol: as §1, §2

A. thaliana PIN8 = biological target: T6, A. thaliana PIN8 (Arabidopsis thaliana, UniProt Q9LFP6); test: SSM electrophysiology, peak current response on PIN8 proteoliposomes
T6 construct: made in house
T6 sequence (Q9LFP6 1-367): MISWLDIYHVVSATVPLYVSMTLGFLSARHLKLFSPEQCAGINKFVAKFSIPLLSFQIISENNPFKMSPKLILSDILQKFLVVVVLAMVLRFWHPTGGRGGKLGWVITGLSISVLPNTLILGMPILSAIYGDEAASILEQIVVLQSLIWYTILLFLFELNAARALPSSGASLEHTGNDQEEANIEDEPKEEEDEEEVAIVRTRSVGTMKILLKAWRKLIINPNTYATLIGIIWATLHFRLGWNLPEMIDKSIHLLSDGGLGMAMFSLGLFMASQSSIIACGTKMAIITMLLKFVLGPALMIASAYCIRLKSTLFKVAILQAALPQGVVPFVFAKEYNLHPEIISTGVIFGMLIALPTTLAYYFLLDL
Protocol: as §1

SMILES | Peak current (PIN8 S55A/S146A; 5 µM substrate) | Peak current (PIN8 S55A/S146A; 20 µM substrate) | Peak current (PIN8 S55A/S146A; 50 µM substrate) | Peak current (PIN8 S55A/S146A; 100 µM substrate) | Peak current (PIN8 S55A/S146A; 500 µM substrate) | Peak current (PIN8 S55A/S146A; 1000 µM substrate) | Peak current (PIN8 S55A/S146A; 2000 µM substrate) | Peak current (PIN8 N223A; 5 µM substrate) | Peak current (PIN8 N223A; 20 µM substrate) | Peak current (PIN8 N223A; 50 µM substrate) | Peak current (PIN8 N223A; 100 µM substrate) | Peak current (PIN8 N223A; 500 µM substrate) | Peak current (PIN8 N223A; 1000 µM substrate) | Peak current (PIN8 N223A; 2000 µM substrate) | Peak current (PIN8 Y150F; 5 µM substrate) | Peak current (PIN8 Y150F; 20 µM substrate) | Peak current (PIN8 Y150F; 50 µM substrate) | Peak current (PIN8 Y150F; 100 µM substrate) | Peak current (PIN8 Y150F; 500 µM substrate) | Peak current (PIN8 Y150F; 1000 µM substrate) | other results
O=C(O)COc1ccc(Cl)cc1Cl [2,4-D, 2,4-dichlorophenoxyacetic acid] | 1.091 nA and 1.269 nA and 1.096 nA and 1.233 nA | 2.74 nA and 3.317 nA and 2.687 nA and 3.21 nA | 4.576 nA and 5.447 nA and 4.222 nA and 5.281 nA | 5.821 nA and 7.052 nA and 5.494 nA and 7.009 nA | 7.699 nA and 9.912 nA and 7.438 nA and 10.224 nA | 7.589 nA and 9.68 nA and 7.275 nA and 10.292 nA | 7.252 nA and 9.015 nA and 6.538 nA and 9.462 nA | 0.0124 nA and 0.01509 nA and 0.004723 nA | 0.01245 nA and 0.01298 nA and 0.01621 nA | 0.07483 nA and 0.06464 nA and 0.125 nA | 0.4074 nA and 0.3145 nA and 0.3925 nA | 1.183 nA and 1.575 nA and 1.146 nA | 1.881 nA and 2.494 nA and 1.874 nA | 3.084 nA and 4.009 nA and 3.08 nA | 0.078 nA and 0.361 nA and 0.415 nA | 0.249 nA and 0.273 nA and 0.378 nA | 0.678 nA and 0.852 nA and 0.964 nA | 1.158 nA and 1.269 nA and 1.466 nA | 2.927 nA and 2.963 nA and 3.216 nA | 4.013 nA and 4.163 nA and 4.27 nA | Peak current (PIN8 Y150F; 2000 µM substrate): 5.287 nA and 6.435 nA and 6.284 nA; Peak current (PIN8 S266A; 5 µM substrate): 0.2981 nA and 0.3384 nA and 0.2121 nA; Peak current (PIN8 S266A; 20 µM substrate): 0.6514 nA and 0.6337 nA and 0.6283 nA; Peak current (PIN8 S266A; 50 µM substrate): 1.218 nA and 1.225 nA and 1.216 nA; Peak current (PIN8 S266A; 100 µM substrate): 1.902 nA and 2.022 nA and 1.988 nA; Peak current (PIN8 S266A; 500 µM substrate): 4.265 nA and 4.394 nA and 4.521 nA; Peak current (PIN8 S266A; 1000 µM substrate): 6.046 nA and 6.169 nA and 6.394 nA; Peak current (PIN8 S266A; 2000 µM substrate): 8.685 nA and 8.632 nA and 9.161 nA; Peak current (PIN8 I51Y; 5 µM substrate): 0.044 nA and 0.112 nA and 0.124 nA; Peak current (PIN8 I51Y; 20 µM substrate): 0.046 nA and 0.09 nA and 0.062 nA; Peak current (PIN8 I51Y; 50 µM substrate): 0.297 nA and 0.387 nA and 0.284 nA; Peak current (PIN8 I51Y; 100 µM substrate): 0.568 nA and 0.749 nA and 0.55 nA; Peak current (PIN8 I51Y; 500 µM substrate): 1.462 nA and 1.671 nA and 1.152 nA; Peak current (PIN8 I51Y; 1000 µM substrate): 1.88 nA and 2.101 nA and 1.385 nA; Peak current (PIN8 I51Y; 2000 µM substrate): 2.66 nA and 3.109 nA and 2.072 nA; Peak current (A. thaliana PIN8; 100 μM 2,4-D, absence of NPA): 4.879 nA; Peak current (A. thaliana PIN8; WT, 50 µM substrate): 4.242 nA; Peak current (A. thaliana PIN8; WT, 100 µM substrate): 5.8107 nA and 5.441 nA and 6.314 nA; Peak current (A. thaliana PIN8; WT, 500 µM substrate): 11.5238 nA and 10.82 nA and 12.6647 nA; Peak current (A. thaliana PIN8; WT, 1000 µM substrate): 13.8362 nA and 12.7682 nA and 15.2635 nA
O=C(O)Cc1c[nH]c2ccccc12 [IAA, indole-3-acetic acid] | 0.465 nA and 0.5002 nA and 0.5662 nA | 0.6855 nA and 0.6271 nA and 1.152 nA | 1.161 nA and 0.8783 nA and 1.9946 nA | 1.362 nA and 0.8101 nA and 2.6104 nA | 3.393 nA and 2.269 nA and 5.611 nA | 5.076 nA and 3.798 nA and 7.432 nA | 5.468 nA and 4.104 nA and 7.879 nA | 0.02147 nA and 0.007803 nA and 0.01536 nA | 0.03442 nA and 0.01942 nA and 0.00897 nA | 0.02378 nA and 0.07636 nA and 0.01338 nA | 0.2872 nA and 0.6837 nA and 0.6146 nA | 0.8542 nA and 1.436 nA and 1.155 nA | 0.9951 nA and 1.777 nA and 1.459 nA | 0.9574 nA and 2.034 nA and 2.099 nA | 0.04349 nA and 0.08816 nA | 0.3008 nA and 0.1166 nA | 0.7156 nA and 0.3431 nA | 1.333 nA and 0.7031 nA | 3.882 nA and 2.2923 nA | 5.306 nA and 3.231 nA | Peak current (PIN8 Y150F; 2000 µM substrate): 6.136 nA and 3.331 nA; Peak current (PIN8 S266A; 100 µM substrate): 0.2889 nA and 0.9012 nA and 0.2145 nA; Peak current (PIN8 S266A; 500 µM substrate): 1.327 nA and 2.405 nA and 1.351 nA; Peak current (PIN8 S266A; 1000 µM substrate): 2.605 nA and 3.622 nA and 2.452 nA; Peak current (PIN8 S266A; 2000 µM substrate): 2.606 nA and 3.8722 nA and 2.498 nA; Peak current (PIN8 I51Y; 5 µM substrate): 0.3159 nA and 0.4078 nA and 0.2616 nA; Peak current (PIN8 I51Y; 20 µM substrate): 0.3089 nA and 0.3835 nA and 0.2875 nA; Peak current (PIN8 I51Y; 50 µM substrate): 0.3227 nA and 0.3793 nA and 0.3407 nA; Peak current (PIN8 I51Y; 100 µM substrate): 0.01816 nA and 0.04709 nA and 0.3071 nA; Peak current (PIN8 I51Y; 500 µM substrate): 1.099 nA and 1.182 nA and 0.8863 nA; Peak current (PIN8 I51Y; 1000 µM substrate): 1.929 nA and 1.7753 nA and 1.506 nA; Peak current (PIN8 I51Y; 2000 µM substrate): 1.453 nA and 1.778 nA and 1.856 nA
